# Reference: the supplement of paper PMC3334620
# Whole data set: some 33,000 sequences, median “E-score (-0.5 to 0.5)” near -0.012, cut for the highest 2% near 0.29. The list shows a part of the results.
# Target: T1, Ybr033w (UniProt P38073)
# T1 sequence: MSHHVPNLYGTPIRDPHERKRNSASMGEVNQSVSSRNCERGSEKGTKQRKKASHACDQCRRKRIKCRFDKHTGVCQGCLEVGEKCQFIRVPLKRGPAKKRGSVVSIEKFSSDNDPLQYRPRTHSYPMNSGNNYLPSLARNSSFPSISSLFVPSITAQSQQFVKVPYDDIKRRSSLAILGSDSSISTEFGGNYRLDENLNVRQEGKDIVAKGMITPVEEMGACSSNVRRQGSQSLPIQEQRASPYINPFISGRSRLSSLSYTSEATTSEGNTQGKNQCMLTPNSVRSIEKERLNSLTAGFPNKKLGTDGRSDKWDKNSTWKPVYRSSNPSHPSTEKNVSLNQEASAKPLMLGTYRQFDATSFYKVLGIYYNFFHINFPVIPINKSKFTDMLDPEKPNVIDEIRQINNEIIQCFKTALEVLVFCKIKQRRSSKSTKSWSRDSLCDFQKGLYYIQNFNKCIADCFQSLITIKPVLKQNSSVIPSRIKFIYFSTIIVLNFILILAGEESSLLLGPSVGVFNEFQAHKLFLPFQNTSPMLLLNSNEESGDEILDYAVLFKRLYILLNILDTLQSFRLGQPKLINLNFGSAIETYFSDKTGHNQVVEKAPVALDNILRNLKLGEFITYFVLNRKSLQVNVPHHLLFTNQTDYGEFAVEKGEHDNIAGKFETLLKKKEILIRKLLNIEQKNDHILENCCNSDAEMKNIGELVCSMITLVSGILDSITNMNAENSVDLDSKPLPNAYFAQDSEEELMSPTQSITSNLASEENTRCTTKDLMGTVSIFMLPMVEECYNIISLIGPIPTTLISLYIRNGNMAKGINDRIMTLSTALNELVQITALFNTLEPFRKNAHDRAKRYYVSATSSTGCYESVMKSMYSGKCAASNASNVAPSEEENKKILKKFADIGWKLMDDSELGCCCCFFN
# Assay: PBM E-score (8-mer binding enrichment) (E-score (-0.5 to 0.5)); higher = stronger / more preferred TF binding; most listed sequences are background and not binding sites
# Conditions: protein concentration: 200 nM; construct: GST-full length
# In short: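 Using PURExpress in vitro transcription/translation, GST-tagged yeast transcription factors were made in full-length or DNA-binding-domain form. These were applied at about 100-200 nM to double-stranded universal all-10-mer Agilent arrays, and bound protein was detected with fluorescent anti-GST. Scans were normalised with masliner before the Universal PBM Analysis Suite assigned E-scores to ungapped eight-base words pooled with their reverse complements.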
row,Sequence,PBM E-score
1,GATGAACC,0.122
2,GATGGCTA,0.0135
3,TGAACACA,0.101
4,TAAGAGAA,-0.00742
5,AGTCATAG,-0.0665
6,CCCTTTCG,-0.167
7,AACTTCAC,0.244
8,AGTTCTAG,0.0921
9,AGGCTAGC,-0.19
10,ATGTAACG,0.0762
11,AACTGGGG,-0.0685
12,CAGCCAAG,-0.126
13,ATACTACC,0.0322
14,AAAGACAC,0.184
15,TACCAATA,0.0786
16,AAAAAGCA,0.246
17,GAGTTCAC,-0.00821
18,AAAGGATG,0.163
19,CCACATAG,0.00684
20,AAAGTCAC,0.0859
21,CCCCCTAA,-0.254
22,TCACTACA,0.243
23,CTTAGCGC,0.0539
24,CAGTAAGG,-0.0217
25,AGAACGAC,-0.0786

row,Sequence,PBM E-score
1,AAACGAAT,0.182
2,GGACCGCC,-0.376
3,ACCGTGCT,-0.237
4,AGTATTGG,0.111
5,CAGGTATG,0.0771
6,TCGGATCA,0.255
7,CTCCTGAC,-0.0994
8,CGCTCGAC,-0.311
9,ATATCACA,0.0388
10,AAACGTAA,0.161
11,CACGGGTA,-0.158
12,CAAGGGAC,-0.164
13,AGATGGTA,0.133
14,AGCGTCTG,-0.232
15,ATCGTTCC,-0.196
16,TATTCAGA,0.0954
17,ACCCTTAG,-0.113
18,CTGCTAAA,0.00904
19,CGTGGCGC,-0.259
20,AGTTACAT,0.0786
21,GCGGGACA,-0.243
22,CCCGGACA,-0.034
23,ACACGCGA,0.00739
24,TAACGTAA,0.192
25,ATCCAGCC,-0.103

row,Sequence,PBM E-score
1,CTTATGTA,0.161
2,TAGATTCA,0.0876
3,CTTTTAAC,0.0274
4,CAACTAGC,0.189
5,GTGCGTCA,-0.301
6,GGTACGCA,0.0659
7,GTGCCGTA,0.0665
8,CGGACAGA,-0.139
9,ATTCAGAG,0.0679
10,CCGAACTA,-0.0825
11,CACGAGAC,-0.067
12,GTCGGTCA,-0.104
13,CGGGTCAC,-0.102
14,AAACGGTT,-0.134
15,ACGCCTAG,-0.052
16,AGAATCGA,0.0687
17,CGTATCAG,-0.0405
18,AAAGTCCG,-0.0892
19,ACCTCCAT,-0.216
20,CCCGTTCG,-0.125
21,AGACTGAA,-0.0303
22,AACTTGGT,0.168
23,CCACGGGG,-0.253
24,GTGAGAAA,0.07
25,CCGCCAAC,-0.0859

row,Sequence,PBM E-score
1,AAAGAGTT,0.146
2,AAACAACC,0.141
3,GTTAGAAA,0.00365
4,CCCGCATA,0.0871
5,GCCGTACA,0.0471
6,AGAGAGGA,-0.208
7,CTTAAGCA,0.0938
8,ATTTCTGC,0.216
9,AGCCAATG,-0.0132
10,ACCGTTAG,0.0369
11,CCTATTAA,0.139
12,AATATGAC,0.109
13,CAGATAAC,0.096
14,ACTCGTGG,-0.0126
15,CTCTCAGA,-0.0959
16,CCCTGCCG,-0.272
17,GAGGAGGA,-0.25
18,AATTATTG,0.274
19,ACCGGTAA,0.106
20,GTGTCGTA,-0.0564
21,AACACTAT,0.283
22,AGTGTCAC,-0.0738
23,CCGTGCAA,-0.0408
24,AGAGTAAG,0.126
25,GGATGACC,-0.217

row,Sequence,PBM E-score
1,TACAACTA,0.118
2,AGCAGCAC,-0.0771
3,ATGAAACA,0.142
4,CTGTCGTC,-0.0634
5,CTGCTGAA,-0.0178
6,AGGGGTCG,-0.317
7,GACCAGCC,-0.121
8,CAGCGTTC,-0.0989
9,GCATGGAA,0.0876
10,AATGTATA,0.27
11,GACCGAGC,-0.204
12,ACTACTCT,0.0727
13,ACTGGACA,0.0145
14,ACGTGACA,0.0317
15,AGAAACCT,0.184
16,GTCCGTCA,-0.0633
17,AGCGTCTA,-0.165
18,ACACCGAA,0.136
19,AAAATGGA,0.197
20,CTTCAAAA,0.218
21,CAGTCAGC,-0.21
22,CATGTACG,0.0783
23,GAATCGAA,0.141
24,ACTCAATA,0.234
25,GACCGACA,-0.062

row,Sequence,PBM E-score
1,GCAATAAC,0.0794
2,GCTTTATA,-0.119
3,AATCGTAC,0.203
4,AATAGGAC,0.0355
5,ATAGTATA,0.117
6,CTCCCTGC,-0.19
7,ATTGCACG,0.014
8,GAGGACGA,-0.00639
9,ACACCTCG,-0.178
10,TGATGAAA,0.183
11,GCAGGAAA,0.0701
12,AGTCTCTA,0.052
13,AATTAGTA,0.26
14,CGAAGAAC,0.145
15,CTCAGTTA,-0.0642
16,CCGGTAGC,-0.187
17,CTCTCTCC,-0.21
18,CGGTCGAG,-0.16
19,GTGCGAGA,-0.0113
20,CCCTATGA,-0.0154
21,CCATTGCG,-0.181
22,TCATTGGA,0.0341
23,CTCATTAA,0.23
24,TGAGACAA,-0.0545
25,AAGGCACT,-0.0779

row,Sequence,PBM E-score
1,GAACCATA,0.0918
2,CCTTGAAA,0.0714
3,ATGCGGTG,-0.157
4,ATAAGCAA,0.252
5,TGAGTACA,0.0898
6,ATGAAGAA,0.126
7,GCTCATAC,-0.0746
8,GAAAGCCC,-0.114
9,CTGCGGTC,-0.262
10,TATGACGA,-0.0767
11,ATCAAGCA,0.0412
12,AGTCTATG,-0.0523
13,ATCCATAG,-0.0877
14,CCTTAAAA,0.0761
15,CCAGTATA,-0.0453
16,GGCTGGTA,-0.15
17,CCGATTCC,-0.0813
18,AGTTGTGC,-0.063
19,AGGTGCAG,-0.186
20,CCATCGGG,0.0152
21,ATACTGGC,-0.227
22,AACGTGGT,-0.046
